Data reported in the supplement of paper PMC8285479.
Structures can show the parent of a compound that is named as a salt. ± gives the standard deviation of the averaged measurements. This list holds what a sample rich in lowest values left over.

Test system: NCI-H1944
Experiment: normalised cell viability (NPI; 0 = phenylarsine oxide control, 1 = DMSO control) (fraction of DMSO control); NCI-H1944 is a non-small cell lung cancer line; higher = more viable cells (less compound toxicity)
Settings: 6 days
[1] = glucocorticoid arm: hydrocortisone 2.75 uM co-treatment, compound 1 µM
[2] = glucocorticoid arm: hydrocortisone 2.75 uM co-treatment, compound 5 µM
[3] = glucocorticoid arm: hydrocortisone 2.75 uM pre-treated 2 days and continued, compound 1 µM
[4] = glucocorticoid arm: hydrocortisone 2.75 uM pre-treated 2 days and continued, compound 5 µM
[5] = glucocorticoid arm: vehicle, compound 1 µM
[6] = glucocorticoid arm: vehicle, compound 5 µM
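Further: CTB read-out in 384-well plates, triplicate wells, NPI normalised per plate against 1 µM phenylarsine oxide (0) and 0.1% DMSO (1) controls.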

Cc1ccc(C(=O)NCCCCCC(=O)Nc2ccccc2N)cc1
normalised cell viability [1]: 0.99 ± 0.019 | normalised cell viability [2]: 1.03 ± 0.045 | normalised cell viability [3]: 0.99 ± 0.014 | normalised cell viability [4]: 1.05 ± 0.01 | normalised cell viability [5]: 0.996 ± 0.013 | normalised cell viability [6]: 0.9213 ± 0.009

Cc1nc2c(-c3cnc(N)nc3)nc(N3CCOCC3)nc2n1C(C)C
normalised cell viability [1]: 0.291 ± 0.034 | normalised cell viability [2]: 0.192 ± 0.01 | normalised cell viability [3]: 0.37 ± 0.039 | normalised cell viability [4]: 0.315 ± 0.071 | normalised cell viability [5]: 0.154 ± 0.015 | normalised cell viability [6]: 0.0743 ± 0.012

CN1[C@@H]2CC[C@H]1C[C@@H](OC(=O)C(O)c1ccccc1)C2 (mixture of isomers) [DL-Homatropine hydrobromide]
normalised cell viability [1]: 0.997 ± 0.0052 | normalised cell viability [2]: 0.978 ± 0.014 | normalised cell viability [3]: 1 ± 0.011 | normalised cell viability [4]: 0.982 ± 0.026 | normalised cell viability [5]: 1.002 ± 0.0076 | normalised cell viability [6]: 1.006 ± 0.0063

CN1C2CCC1CC(OC(=O)C(O)c1ccccc1)C2 (stereo not given) [Homatropine Bromide]
normalised cell viability [1]: 1 ± 0.011 | normalised cell viability [2]: 0.9883 ± 0.0086 | normalised cell viability [3]: 1 ± 0.011 | normalised cell viability [4]: 1 ± 0.033 | normalised cell viability [5]: 1.006 ± 0.0063 | normalised cell viability [6]: 1.01

Cc1ccccc1-n1c(Cn2nc(-c3cccc(O)c3)c3c(N)ncnc32)nc2cccc(C)c2c1=O
normalised cell viability [1]: 0.882 ± 0.021 | normalised cell viability [2]: 0.888 ± 0.013 | normalised cell viability [3]: 0.876 ± 0.004 | normalised cell viability [4]: 0.813 ± 0.046 | normalised cell viability [5]: 0.915 ± 0.021 | normalised cell viability [6]: 0.9387 ± 0.008
